# Data reported in the supplement of paper PMC3334620.
# Whole data set: some 33,000 sequences, median “E-score (-0.5 to 0.5)” near -0.054, cut for the highest 2% near 0.35. Some of the results follow.
# Biological target: T1, Stb5 (UniProt P38699)
# T1 sequence: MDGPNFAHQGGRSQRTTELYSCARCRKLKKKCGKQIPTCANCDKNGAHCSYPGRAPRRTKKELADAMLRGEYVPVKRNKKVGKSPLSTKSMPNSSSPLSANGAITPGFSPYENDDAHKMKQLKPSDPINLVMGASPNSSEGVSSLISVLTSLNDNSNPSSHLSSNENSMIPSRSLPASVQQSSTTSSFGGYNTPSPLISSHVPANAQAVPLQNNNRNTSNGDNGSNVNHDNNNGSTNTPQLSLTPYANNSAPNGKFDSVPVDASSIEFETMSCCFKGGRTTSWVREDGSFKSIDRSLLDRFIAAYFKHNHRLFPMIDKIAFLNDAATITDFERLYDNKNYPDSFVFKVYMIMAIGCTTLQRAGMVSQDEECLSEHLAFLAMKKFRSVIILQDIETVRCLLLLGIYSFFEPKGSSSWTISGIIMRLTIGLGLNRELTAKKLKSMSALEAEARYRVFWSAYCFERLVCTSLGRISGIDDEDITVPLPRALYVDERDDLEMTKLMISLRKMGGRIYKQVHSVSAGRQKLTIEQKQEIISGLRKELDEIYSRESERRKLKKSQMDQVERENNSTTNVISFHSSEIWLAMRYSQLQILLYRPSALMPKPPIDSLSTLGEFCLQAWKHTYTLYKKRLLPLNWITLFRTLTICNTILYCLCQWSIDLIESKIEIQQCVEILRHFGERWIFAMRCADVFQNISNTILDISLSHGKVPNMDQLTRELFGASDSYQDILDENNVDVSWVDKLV
# Assay: PBM E-score (8-mer binding enrichment) (E-score (-0.5 to 0.5)); higher = stronger / more preferred TF binding; most listed sequences are background and not binding sites
# Settings: protein concentration: 200 nM; construct: GST-full length
# Summary of the method: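 Bound GST-tagged yeast transcription factors, applied at about 100-200 nM to double-stranded universal all-10-mer Agilent arrays, were detected with fluorescent anti-GST. Scans were normalised with masliner. A modified Wilcoxon-Mann-Whitney statistic, the E-score, was assigned to each ungapped eight-base word pooled with its reverse complement by the Universal PBM Analysis Suite.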
row,Sequence,PBM E-score
1,CTTAGTAC,0.00597
2,AGAGGTGA,-0.139
3,ATCCAGAC,0.0203
4,GCACCAAA,-0.168
5,GAAAACAC,0.195
6,AGTCAACG,-0.144
7,AGTTAATC,0.101
8,ATGGAACG,-0.0862
9,AGTTGCGG,0.182
10,ACAGTTAA,-0.0537
11,ACGCCCTA,0.0435
12,AGCCGTGA,0.0842
13,GTTAATCA,-0.00602
14,ACGGGAGG,0.0128
15,CAACGAAA,-0.126
16,ATTAGGAC,-0.0207
17,TCTTACAA,-0.14
18,GTAAACTA,-0.0246
19,GCCGCTCA,0.303
20,GCACCAGC,-0.0723
21,CGGCCCTA,0.426
22,CCAAGTTC,0.0535

row,Sequence,PBM E-score
1,GTGTTCCA,-0.104
2,AATGTGGC,-0.0962
3,AAGATACT,-0.0155
4,GCGAGCGA,-0.139
5,ACCCTCAG,-0.166
6,ATCGCATG,-0.0961
7,ATAATGTG,-0.143
8,CGTATAAG,0.109
9,ATCTGACG,-0.0873
10,AATAGATT,-0.0389
11,CACCCTAG,-0.151
12,CGATTAAG,0.068
13,ACGACAGC,-0.181
14,AGCCTACC,-0.178
15,AATATACG,0.00055
16,GCAATAAA,0.152
17,CGTGTCGA,-0.285
18,CATAACTC,0.115
19,CAGGCAAC,-0.39
20,AAGTCTAC,-0.177
21,CCGCACTC,0.148
22,ATAAATTC,0.13

row,Sequence,PBM E-score
1,AACAAGGT,-0.0752
2,TACTCCCA,0.0265
3,CTGGTCAC,-0.233
4,CGCATATC,0.0209
5,CAGGCTAC,-0.0641
6,CATGATCG,0.035
7,CCACACCC,-0.0921
8,GCCCCAGA,-0.0372
9,AGGAGTTG,-0.154
10,CAAAGCCC,0.285
11,ACGTGGAC,0.0889
12,CGGCTAGA,-0.0327
13,ACCGGACA,0.321
14,AAGCATAT,-0.0271
15,AACCTTCA,-0.272
16,AACACTTC,-0.246
17,CTATGGGC,-0.237
18,ATCGGCAC,0.339
19,ACCACCCT,-0.168
20,GCCCGGGA,0.262
21,CCCCGCGC,0.311
22,CACGTATG,-0.0394

row,Sequence,PBM E-score
1,CGGAATCA,0.267
2,AAATGGAG,0.048
3,GGCCTTCA,0.103
4,ACACGGGA,0.0484
5,CAATTTGG,-0.102
6,AACCGACA,0.181
7,CGTACCGC,0.302
8,CTCCCACA,-0.0559
9,GCTTGTCA,0.0846
10,AATGGACA,-0.222
11,GCGGAGAA,0.259
12,TGTTATAA,0.146
13,AGCTAGTG,-0.326
14,GTTAAGAA,0.0684
15,ATTCACGG,0.216
16,CCTCGTGA,-0.168
17,CCCTGTAC,-0.0542
18,AACCCAAT,-0.235
19,CAACCCAC,-0.11
20,AGTTCACG,-0.254
